Molecules are shown by their SMILES. Where a name gives a salt, the structure may show the parent alone. In all, about 2,800 compounds were measured (“cell viability relative to vehicle”: median about 0.98, lowest 2% from about 0.45 on). This is one part of the list.

The test system of this experiment is NCI-H2228 alectinib-DTP. In words: cell viability relative to vehicle (fraction of vehicle); NCI-H2228 is an ALK-positive lung cancer line and DTP means drug-tolerant persister; higher = less growth inhibition. The conditions noted are these: 100 nM; treatment time 6 days. In outline:
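Drug-tolerant persister NCI-H2228 cells, produced by 13 days in 1000 nM of a targeted drug, and their parental counterparts were seeded into 384-well plates and, the following day, given the 3114-agent TargetMol anti-cancer compound library at 100 nM or DMSO vehicle. After 6 days, the CellTiter-Glo 3D Cell Viability Assay was used to read ATP. Each entry reports viability compared with vehicle-treated cells.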
The compound `CC(C)(C#N)c1cc(Cn2cncn2)cc(C(C)(C)C#N)c1` [Anastrozole] showed a cell viability of 1.12.
Turning to `c1cnoc1` [Isoxazole], the cell viability amounted to 1.05.
The compound `Oc1c(I)cc(Cl)c2cccnc12` [Clioquinol] yielded a cell viability of 1.09.
As for `COc1cccc(-c2cc(=O)c3ccccc3o2)c1N`, the figure is 0.954; as for `CN(C)CCOC(C)(c1ccccc1)c1ccccn1` (stereo not drawn) [Doxylamine succinate], 1.04; as for `C=CCNC(N)=S` [Allylthiourea], 1.11.
Compound `CNC(=O)c1cccc(-c2ccc3c(N4CCOC[C@@H]4C)nc(N4CCOC[C@@H]4C)nc3n2)c1` [Vistusertib] showed a cell viability of 0.594.
Compound `N#Cc1cccc(-c2c[nH]c3ncnc(N4CCOCC4)c23)c1` came in with a cell viability of 0.975.
The compound `O=C(CCc1ccc(O)cc1)c1c(O)cc(O)cc1O` [Phloretin] came in with a cell viability of 0.99.
For the compound `Cc1cn(CCN2CCN(c3ccccc3-c3cc(C#N)cc(C(=O)NCCCN4CCCC4)c3)CC2)c2ccccc12`, the cell viability was 1.19.
For the compound `NC(=O)c1cccc2cn(-c3ccc([C@@H]4CCCNC4)cc3)nc12` [Niraparib], the cell viability amounted to 0.969.
With `OC(CNCC(O)C1CCc2cc(F)ccc2O1)C1CCc2cc(F)ccc2O1` (stereo not drawn) [Nebivolol hydrochloride] the figure was 1.12; with `CN(CC(=O)N(Cc1ccc(C2CCCCC2)cc1)c1ccc(C(=O)O)cc1)S(=O)(=O)c1c(F)c(F)c(F)c(F)c1F`, 1.09.
With `O=C(NCc1ccccc1)c1csc(Nc2ccncn2)n1` [Thiazovivin] the figure was 0.84; with `C=CC(=O)Nc1cc2c(Nc3ccc(F)c(Cl)c3)ncnc2cc1OCCCN1CCOCC1` [Canertinib dihydrochloride], 0.8.
As for `COC[C@H]1C[C@@H](c2nc(-c3ccc4c(c3)COc3cc5c(ccc6nc([C@@H]7CC[C@H](C)N7C(=O)[C@@H](NC(=O)OC)C(C)C)[nH]c65)cc3-4)c[nH]2)N(C(=O)[C@H](NC(=O)OC)c2ccccc2)C1` [Velpatasvir], the figure is 0.887.
For the compound `C=CC(=O)Nc1ccc(CN(C(=O)Nc2c(Cl)c(OC)cc(OC)c2Cl)c2cc(Nc3ccc(N4CCN(C)CC4)cc3)ncn2)cc1`, the cell viability came out at 0.625.
The compound `COc1ccc(OC)c(C(O)CNC(=O)CN)c1` (stereo not drawn) [Midodrine hydrochloride] registered a cell viability of 0.808.
Compound `CNCc1ccc(-c2cc(-c3nc(-c4ccc(S(=O)(=O)C(C)C)cc4)cnc3N)on2)cc1` [Berzosertib] returned a cell viability of 0.948.
As for `O=c1ccc2ccc(OCCCCN3CCN(c4cccc5sccc45)CC3)cc2[nH]1` [Brexpiprazole], the figure is 1.1; as for `CC1C(=O)OC2C(O)C34C5CC(C(C)(C)C)C36C(OC(=O)C6O)OC4(C(=O)O5)C12O` (stereo not drawn) [Ginkgolide B], 1.03.
As for `C[N+](C)(C)CCCCCC[N+](C)(C)C` [Hexamethonium Bromide], the figure is 0.884; as for `CN(C)/N=N/c1[nH]cnc1C(N)=O` [Dacarbazine], 0.984.
The compound `CN1C(C)(C)CCCC1(C)C` [Pempidine] came in with a cell viability of 1.12.
As for `Cn1cc(-c2ccc3ncc(Cc4ccc5ncccc5c4)n3n2)cn1`, the cell viability was found to be 0.85.
For the compound `CC(CCc1ccccc1)NCC(O)c1ccc(O)c(C(N)=O)c1` (stereo not drawn) [Labetalol hydrochloride], the cell viability is 1.08.
As for `CCOC(=O)[C@H](CCc1ccccc1)N[C@@H](C)C(=O)N1Cc2ccccc2C[C@H]1C(=O)O` [Quinapril hydrochloride], the cell viability came to 0.969.
In turn, `Cc1cn([C@H]2O[C@@H](CO)[C@H](O)[C@H]2F)c(=O)[nH]c1=O` [Clevudine] showed a cell viability of 0.977.
Take `COc1ccc(C(Cl)=C(c2ccc(OC)cc2)c2ccc(OC)cc2)cc1` [Chlorotrianisene]: the cell viability turned out to be 0.925.
With `Cc1oncc1C(=O)Nc1ccc(C(F)(F)F)cc1` [Leflunomide] the figure was 0.981; with `O=C(O)c1cccnc1Nc1cccc(C(F)(F)F)c1` [Niflumic acid], 1.08.
As for `O=C1[C@H](Cc2ccc(O)cc2)N2C(=O)CCN(C(=O)NCc3ccccc3)[C@H]2CN1Cc1cccc2ccccc12`, the figure is 1.07; as for `COc1ccc(-c2oc3cc(O)cc(O)c3c(=O)c2O)cc1` [kaempferide], 1.06.
As for `CCn1c2ccccc2c2cc(Nc3ccnc(NCCCN4CCOCC4)n3)ccc21`, the figure is 0.949.
With `CC1(C)S[C@@H]2[C@H](NC(=O)[C@H](NC(=O)N3CCNC3=O)c3ccccc3)C(=O)N2[C@H]1C(=O)O` [Azlocillin sodium], the cell viability is 0.986.
As for `CC(C)c1ccc2oc3nc(N)c(C(=O)O)cc3c(=O)c2c1` [Amlexanox], the figure is 0.992.
With `COC(=O)Nc1nc2cc(C(=O)c3ccccc3)ccc2[nH]1` [Mebendazole] the figure was 0.908; with `Nc1nc2c(ncn2[C@@H]2O[C@H](CO)[C@@H](O)[C@H]2O)c(=O)[nH]1` [Guanosine], 0.994; with `Clc1cnccn1` [2-Chloropyrazine], 0.962.
For `Cc1c(NC(=O)c2cc(C(N)=O)nc3cc(F)ccc23)c(C(F)(F)F)nn1Cc1ccc(C#N)cc1`, the cell viability is 0.869.
As for `Cc1cc2c(cc1S(N)(=O)=O)S(=O)(=O)CCC2` [Meticrane], the figure is 0.903; as for `COCCOc1cnc2ccn([C@H](C)c3nnc4c(F)cc(-c5cnn(C)c5)cn34)c(=O)c2c1`, 1.04; as for `COc1ccc2c(C)nc(Nc3nc(C)c(C)c(=O)[nH]3)nc2c1` [Madrasin], 1.04.
With `Cc1cc(-c2nnc(N)nc2-c2ccc(F)cc2)cc(Cl)n1` the figure was 1.1.
With `CC(C)N(C[C@H]1O[C@@H](n2cnc3c(N)ncnc32)[C@H](O)[C@@H]1O)[C@H]1C[C@@H](CCc2nc3cc(C(C)(C)C)ccc3[nH]2)C1` [Pinometostat] the figure was 1.04; with `O=S(=O)(c1ccc(Cl)cc1)N1CCN(c2ccnc3cc(Cl)ccc23)CC1`, 0.965; with `C[N+]1(C)[C@@H]2CC[C@H]1C[C@@H](OC(=O)C(O)c1ccccc1)C2` (stereo partly drawn) [Homatropine Methylbromide], 1.22.
In the case of `COc1ccc(-c2cc(=O)c3c(O)cc(O)c(-c4cc(-c5cc(=O)c6c(O)cc(O)cc6o5)ccc4OC)c3o2)cc1`, the cell viability turned out to be 0.974.
`Cc1c(C)c2c(c(C)c1O)CCC(C)(COc1ccc(CC3SC(=O)NC3=O)cc1)O2` (stereo not drawn) [Troglitazone] came in with a cell viability of 0.922.
In turn, `CSc1ccc2c(c1)C(N1CCN(C)CC1)Cc1ccccc1S2` (stereo not drawn) [Methiothepin mesylate] displayed a cell viability of 1.14.
As for `CC(C)(C)C(=O)Oc1ccc(S(=O)(=O)Nc2ccccc2C(=O)NCC(=O)O)cc1` [Sivelestat], the cell viability came to 1.11.
On to `C[C@H]1COc2c(C3(N)CC3)c(F)cc3c(=O)c(C(=O)O)cn1c23` [Pazufloxacin Mesylate], for which the cell viability turned out to be 0.983.
In turn, `O=C(NCCCn1ccnc1)c1cc(-c2ccco2)on1` showed a cell viability of 1.03.
As for `C[N+]1(C)[C@@H]2C[C@@H](OC(=O)C(O)(c3cccs3)c3cccs3)C[C@H]1[C@@H]1O[C@@H]12` [Tiotropium bromide], the figure is 1; as for `Clc1ccc(NN=C(c2ccccc2)c2ccccn2)nc1`, 0.74.
With `O=C(/C=C/c1ccc2ccccc2n1)c1ccncc1` the figure was 0.975; with `COc1cc(O)c2c(c1)oc(=O)c1c3cc(O)c(O)cc3oc21` [Wedelolactone], 0.924; with `COC(=O)C[C@H](NC(=O)[C@H](C)NC(=O)[C@@H](NC(=O)OCc1ccccc1)C(C)C)C(=O)CF`, 1.
As for `CCCCCCCCCCCCCC(=S)NCCCC[C@H](NC(=O)OCc1ccccc1)C(=O)Nc1ccccc1` [Thiomyristoyl], the figure is 1.11; as for `CN(C)CCCN1c2ccccc2Sc2ccccc21` [Promazine hydrochloride], 1.06; as for `COc1cc2cc(Oc3ccc4ccc(=O)oc4c3)c(=O)oc2cc1O` [Daphnoretin], 1.11.
In turn, `CC(C)(C(=O)O)c1ccc(C(O)CCCN2CCC(C(O)(c3ccccc3)c3ccccc3)CC2)cc1` (stereo not drawn) [Fexofenadine hydrochloride] registered a cell viability of 1.02.
`O=c1cc(N2CCOCC2)oc2c(-c3cccc4c3sc3ccccc34)cccc12` registered a cell viability of 0.898.
With `COc1ccc([C@@H]2CC(=O)c3c(O)cc(O[C@@H]4O[C@H](CO[C@@H]5O[C@@H](C)[C@H](O)[C@@H](O)[C@H]5O)[C@@H](O)[C@H](O)[C@H]4O)cc3O2)cc1O` [Hesperidin] the figure was 1.15; with `Cc1cc2cc(Oc3ccnc(Nc4cccc(CS(=O)(=O)NCCN(C)C)c4)n3)ccc2[nH]1` [Sulfatinib], 1.07; with `COc1cccc(-c2cc(NCc3ccc4c(c3)OCO4)nc(N)n2)c1` [Wnt agonist 1], 0.701.
As for `Cc1ccc(-c2ccc(F)cc2COc2ccc(CCC(=O)O)cc2)cc1`, the figure is 1.01.
`COCc1c(-c2ccc(NC(=O)Nc3cc(C(F)(F)F)ccc3F)c(F)c2)c2c(N)ncnn2c1CN1CCOCC1`: the cell viability amounted to 0.632.
As for `CO/N=C(\C(=O)N[C@@H]1C(=O)N2C(C(=O)OCOC(=O)C(C)(C)C)=C(/C=C\c3scnc3C)CS[C@H]12)c1csc(N)n1` [Cefditoren pivoxil], the figure is 0.916; as for `CCC(=O)N1CCN(c2ccc(-n3c(=O)ccc4cnc5ccc(-c6cnc7ccccc7c6)cc5c43)cc2C(F)(F)F)CC1` [Torin 1], 0.437; as for `c1ccc2c(Cc3c[nH]c4ccccc34)c[nH]c2c1` [3,3'-Diindolylmethane], 0.938.
As for `C=C1C(=O)O[C@@H]2/C=C(\C)CC/C=C(\C)CC[C@@H]12` [Costunolide], the figure is 0.964.
As for `O=C(Nc1ccccc1)c1cc([N+](=O)[O-])ccc1Cl`, the figure is 0.995; as for `Oc1ccc2c(c1)OCO2` [Sesamol], 1.02.
Compound `Cc1onc(-c2ccccc2)c1-c1ccc(S(N)(=O)=O)cc1` [Valdecoxib] came in with a cell viability of 1.03.
With `O=C(O)[C@H]1O[C@@H](Oc2cc3oc(-c4ccc(O)cc4)cc(=O)c3c(O)c2O)[C@H](O)[C@@H](O)[C@@H]1O` [Scutellarin], the cell viability turned out to be 0.977.
The compound `C[C@]12CCC(=O)C=C1CC[C@@H]1[C@@H]2[C@@H](O)C[C@@]2(C)[C@H]1CC[C@]2(O)C(=O)CO` [Hydrocortisone] displayed a cell viability of 0.634.
The compound `O[C@@H]1[C@@H](O)[C@@H](OC/C=C/c2ccccc2)O[C@H](CO[C@@H]2OC[C@H](O)[C@H](O)[C@H]2O)[C@H]1O` [Rosavin] came in with a cell viability of 0.944.

(Values after the supplement of paper PMC10600219.)
